This is one part of the list.
Legend:
Experiment in all cases: glycan array binding signal (z-score within array); higher = stronger binding
Settings in all cases: glycan notation: IUPAC condensed, linker removed
[1] = biological target: Gal(b1-4)GlcNAc(b1-3)Gal(b1-4)GlcNAc(b1-3)[Gal(b1-4)GlcNAc(b1-3)Gal(b1-4)GlcNAc(b1-6)]GalNAc
Method in brief: (§1)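 Glycan array data came from 3228 arrays in the Consortium for Functional Glycomics database, and only arrays with an available protein sequence were kept. Glycan names were put into IUPAC-condensed notation, and columns mapping to the same glycan were averaged. The binding signal is a within-array Z-score, averaged across arrays of one protein sequence run at different concentrations or buffers and across linkers. A negative Z-score can be read as non-binding.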

[2] = biological target: Gal(b1-4)GlcNAc(b1-3)Gal(b1-4)GlcNAc(b1-6)[Gal(b1-3)]GalNAc
Method in brief: as §1

[3] = biological target: Gal(b1-4)GlcNAc(b1-3)Gal(b1-4)[Fuc(a1-3)]GlcNAc(b1-3)Gal(b1-4)[Fuc(a1-3)]GlcNAc
Method in brief: as §1

[4] = biological target: Gal(b1-4)GlcNAc(b1-3)GalNAc
Method in brief: as §1

[5] = biological target: Gal(b1-4)GlcNAc(b1-3)[Fuc(a1-3)GlcNAc(b1-6)]Gal(b1-4)Glc
Method in brief: as §1

[6] = biological target: Gal(b1-4)GlcNAc(b1-3)[Gal(b1-4)GlcNAc(b1-6)]Gal(b1-4)GlcNAc
Method in brief: as §1

[7] = biological target: Gal(b1-4)GlcNAc(b1-3)[GlcNAc(b1-6)]Gal(b1-4)GlcNAc
Method in brief: as §1

[8] = biological target: Gal(b1-4)GlcNAc(b1-6)Gal(b1-4)GlcNAc
Method in brief: as §1

[9] = biological target: Gal(b1-4)GlcNAc(b1-6)GalNAc
Method in brief: as §1

[10] = biological target: Gal(b1-4)GlcNAc(b1-6)[Gal(b1-3)]GalNAc
Method in brief: as §1

[11] = biological target: Gal(b1-4)GlcNAc(b1-6)[Gal(b1-4)GlcNAc(b1-3)]GalNAc
Method in brief: as §1

Gal(b1-4)GlcNAc6P = biological target: Gal(b1-4)GlcNAc6P
Method in brief: as §1

Gal(b1-6)Gal = biological target: Gal(b1-6)Gal
Method in brief: as §1

Gal3S(b1-3)GalNAc = biological target: Gal3S(b1-3)GalNAc
Method in brief: as §1

Gal3S(b1-3)GlcNAc = biological target: Gal3S(b1-3)GlcNAc
Method in brief: as §1

[12] = biological target: Gal3S(b1-3)[Fuc(a1-4)]GlcNAc
Method in brief: as §1

Gal3S(b1-4)Glc = biological target: Gal3S(b1-4)Glc
Method in brief: as §1

Gal3S(b1-4)Glc6S = biological target: Gal3S(b1-4)Glc6S
Method in brief: as §1

Gal3S(b1-4)GlcNAc = biological target: Gal3S(b1-4)GlcNAc
Method in brief: as §1

[13] = biological target: Gal3S(b1-4)[Fuc(a1-3)]Glc6S
Method in brief: as §1

[14] = biological target: Gal3S(b1-4)[Fuc(a1-3)]GlcNAc
Method in brief: as §1

[15] = biological target: Gal3S(b1-4)[Fuc(a1-3)]GlcNAc6S
Method in brief: as §1

Gal3S4S(b1-4)GlcNAc = biological target: Gal3S4S(b1-4)GlcNAc
Method in brief: as §1

Gal3S6S(b1-4)GlcNAc = biological target: Gal3S6S(b1-4)GlcNAc
Method in brief: as §1

Gal3S6S(b1-4)GlcNAc6S = biological target: Gal3S6S(b1-4)GlcNAc6S
Method in brief: as §1

Gal4S(b1-4)GlcNAc = biological target: Gal4S(b1-4)GlcNAc
Method in brief: as §1

Gal4S6S(b1-4)GlcNAc = biological target: Gal4S6S(b1-4)GlcNAc
Method in brief: as §1

Gal6P(b1-4)GlcNAc = biological target: Gal6P(b1-4)GlcNAc
Method in brief: as §1

Gal6S(b1-3)GlcNAc = biological target: Gal6S(b1-3)GlcNAc
Method in brief: as §1

Gal6S(b1-3)GlcNAc6S = biological target: Gal6S(b1-3)GlcNAc6S
Method in brief: as §1

Gal6S(b1-4)Glc = biological target: Gal6S(b1-4)Glc
Method in brief: as §1

Gal6S(b1-4)Glc6S = biological target: Gal6S(b1-4)Glc6S
Method in brief: as §1

Gal6S(b1-4)GlcNAc = biological target: Gal6S(b1-4)GlcNAc
Method in brief: as §1

Gal6S(b1-4)GlcNAc6S = biological target: Gal6S(b1-4)GlcNAc6S
Method in brief: as §1

GalNAc(a1-3)Gal = biological target: GalNAc(a1-3)Gal
Method in brief: as §1

GalNAc(a1-3)GalNAc = biological target: GalNAc(a1-3)GalNAc
Method in brief: as §1

[16] = biological target: GalNAc(a1-3)GalNAc(b1-3)Gal(a1-4)Gal(b1-4)Glc
Method in brief: as §1

[17] = biological target: GalNAc(a1-3)GalNAc(b1-3)Gal(a1-4)Gal(b1-4)GlcNAc
Method in brief: as §1

GalNAc(b1-3)Gal = biological target: GalNAc(b1-3)Gal
Method in brief: as §1

[18] = biological target: GalNAc(b1-3)Gal(a1-4)Gal(b1-4)GlcNAc
Method in brief: as §1

[19] = biological target: GalNAc(b1-3)Gal(a1-4)Gal(b1-4)GlcNAc(b1-3)Gal(b1-4)Glc
Method in brief: as §1

[20] = biological target: GalNAc(b1-3)Gal(a1-6)Gal(b1-4)Glc
Method in brief: as §1

GalNAc(b1-3)GalNAc = biological target: GalNAc(b1-3)GalNAc
Method in brief: as §1

GalNAc(b1-3)GlcNAc = biological target: GalNAc(b1-3)GlcNAc
Method in brief: as §1

GalNAc(b1-4)Gal(b1-4)Glc = biological target: GalNAc(b1-4)Gal(b1-4)Glc
Method in brief: as §1

B1: SSR2 (Sclerotium rolfsii) (protein)
chain: MVYKITVRVYQTNPDAFFHPVEKTVWKYANGGTWSITDDQHVLTMGGSGTSGTLRFHADNGESFTATFGVHNYKRWCDIVTNLAADETGMVINQQYYSQKNREEARERQLSNYQVKNAKGRNFQIVYTEAEGNDLHANLIIG
For B1, the “glycan array binding signal (z-score)” value [1] was -0.247, the “glycan array binding signal (z-score)” value [2] was 0.567 and the “glycan array binding signal (z-score)” value [3] was -0.284. For the same binder, the “glycan array binding signal (z-score)” value [4] was -0.281, the “glycan array binding signal (z-score)” value [5] was -0.263 and the “glycan array binding signal (z-score)” value [6] was -0.304. For the same binder, the “glycan array binding signal (z-score)” value [7] was 0.558, the “glycan array binding signal (z-score)” value [8] was -0.301 and the “glycan array binding signal (z-score)” value [9] was -0.278. For the same binder, the “glycan array binding signal (z-score)” value [10] was 1.31, the “glycan array binding signal (z-score)” value [11] was -0.288 and the “glycan array binding signal (z-score)” value (Gal(b1-4)GlcNAc6P) was -0.276. The “glycan array binding signal (z-score)” value (Gal(b1-6)Gal) was -0.29, the “glycan array binding signal (z-score)” value (Gal3S(b1-3)GalNAc) was 4.27 and the “glycan array binding signal (z-score)” value (Gal3S(b1-3)GlcNAc) was -0.282. The “glycan array binding signal (z-score)” value [12] was -0.279, the “glycan array binding signal (z-score)” value (Gal3S(b1-4)Glc) was -0.273 and the “glycan array binding signal (z-score)” value (Gal3S(b1-4)Glc6S) was -0.275. The “glycan array binding signal (z-score)” value (Gal3S(b1-4)GlcNAc) was -0.273, the “glycan array binding signal (z-score)” value [13] was -0.252 and the “glycan array binding signal (z-score)” value [14] was -0.29. For the same binder, the “glycan array binding signal (z-score)” value [15] was -0.29, the “glycan array binding signal (z-score)” value (Gal3S4S(b1-4)GlcNAc) was -0.288 and the “glycan array binding signal (z-score)” value (Gal3S6S(b1-4)GlcNAc) was -0.287. For the same binder, the “glycan array binding signal (z-score)” value (Gal3S6S(b1-4)GlcNAc6S) was -0.27, the “glycan array binding signal (z-score)” value (Gal4S(b1-4)GlcNAc) was -0.297 and the “glycan array binding signal (z-score)” value (Gal4S6S(b1-4)GlcNAc) was -0.279. The “glycan array binding signal (z-score)” value (Gal6P(b1-4)GlcNAc) was -0.287, the “glycan array binding signal (z-score)” value (Gal6S(b1-3)GlcNAc) was -0.289 and the “glycan array binding signal (z-score)” value (Gal6S(b1-3)GlcNAc6S) was -0.29. For the same binder, the “glycan array binding signal (z-score)” value (Gal6S(b1-4)Glc) was -0.29, the “glycan array binding signal (z-score)” value (Gal6S(b1-4)Glc6S) was -0.265 and the “glycan array binding signal (z-score)” value (Gal6S(b1-4)GlcNAc) was -0.277. For the same binder, the “glycan array binding signal (z-score)” value (Gal6S(b1-4)GlcNAc6S) was -0.283, the “glycan array binding signal (z-score)” value (GalNAc(a1-3)Gal) was -0.284 and the “glycan array binding signal (z-score)” value (GalNAc(a1-3)GalNAc) was -0.275. The “glycan array binding signal (z-score)” value [16] was -0.291, the “glycan array binding signal (z-score)” value [17] was -0.279 and the “glycan array binding signal (z-score)” value (GalNAc(b1-3)Gal) was -0.297. For the same binder, the “glycan array binding signal (z-score)” value [18] was -0.294, the “glycan array binding signal (z-score)” value [19] was -0.282 and the “glycan array binding signal (z-score)” value [20] was -0.281. The “glycan array binding signal (z-score)” value (GalNAc(b1-3)GalNAc) was -0.235, the “glycan array binding signal (z-score)” value (GalNAc(b1-3)GlcNAc) was -0.264 and the “glycan array binding signal (z-score)” value (GalNAc(b1-4)Gal(b1-4)Glc) was -0.265.
